Earlier results in PubChem BioAssay AID1259410 (Chemical Carcinogenesis Research Information System (CCRIS), 2018).
Entries after “also recorded” stand apart in the source; their conditions may differ. Certain results were filed several times, with different values. The other results are left out here. An entry can have further records. The records of an entry do not match, cause unknown; they may come from other doses, times, organisms or constructs than stated.

Test system: rodent tumor promotion studies, tumor incidence
Test: CCRIS tumor promotion studies
Details: Species: RAT
Text: The CCRIS database contains chemical records with carcinogenicity, mutagenicity, tumor promotion, and tumor inhibition test results. It was developed by the National Cancer Institute (NCI). Data are derived from studies cited in primary journals, current awareness tools, NCI reports, and other sources. Test results have been reviewed by experts in carcinogenesis and mutagenesis.
CCRIS provides historical information from the years 1985 - 2011. It is no longer updated.
This is an archive assay for CCRIS tumor promotion studies.

Compound	outcome (Carcinogen: 7,12-DIMETHYLBENZ[A]ANTHRACENE [57-97-6], Doses [Carcinogen]: 50 MG/KG BW ONCE AT 7 WK AGE, Doses [Promoter]: 0, 5, 50, 500 PPM IN DIET FOR 34 WK TO OVARIECTOMIZED TUMOR BEARING RATS FOR 19 WK AFTER CARCINOGEN (STUDY DURATION: 53, 5, 50, 500 PPM IN DIET FOR 34 WK TO OVARIECTOMIZED TUMOR BEARING RATS FOR 19 WK AFTER CARCINOGEN (STUDY DURATION: 53, Route [Carcinogen]: INTRAGASTRIC, Route [Promoter]: DIET (ORAL), Strain/Sex: SPRAGUE-DAWLEY/FEMALE)	outcome (Carcinogen: 2-ACETYLAMINOFLUORENE, 53-96-3, Doses [Carcinogen]: 50 PPM IN DIET FOR 76 WK, Doses [Promoter]: 0, 100, 300, 1000, 3000, 6000 PPM IN DIET CONCURRENTLY WITH CARCINOGEN FOR STUDY DURATION (STUDY DURATION: 76 WK), 100, 300, 1000, 3000, Route [Carcinogen]: ORAL, Route [Promoter]: ORAL, Strain/Sex: F344/MALE)	outcome (Carcinogen: 3,2'-DIMETHYL-4-AMINOBIPHENYL, 13394-86-0, Doses [Carcinogen]: 50 MG/KG IN CORN OIL 1/WK FOR 10 WK, Doses [Promoter]: 0, 1% ADMINISTERED TO 55 WK OLD RATS IN DIET FOR 11 WK BEGINNING 1 WK PRIOR TO CARCINOGEN (STUDY DURATION: 55 WK), Route [Carcinogen]: SUBCUTANEOUS, Route [Promoter]: ORAL, Strain/Sex: F344/MALE)
CCNc1nc(Cl)nc(NC(C)C)n1	mammary tumor, not significant; also recorded: mammary: tumor; incidence increased at 500 ppm p<0.05; volume of tumor increased	–	–
Cc1cc(C(C)(C)C)c(O)c(C(C)(C)C)c1	–	bladder: carcinoma and bladder: papilloma	ear duct: adenoma/carcinoma and bladder: carcinoma, papilloma
